# Test results as given in article PMC6919601, “Identification of Plasmodium dipeptidyl aminopeptidase allosteric inhibitors by high throughput screening” (PLoS ONE, 2019).
# Screen size: about 110,000 compounds; about 230 (0.21%) showed an effect of 50% or more. The list shows a part of the results.
# Target: DPAP1 (Plasmodium falciparum, UniProt Q8IIJ9)
# Assay: primary screen, percent inhibition; read by cleavage of a fluorogenic dipeptide substrate; higher = more effect of the substance
# Parameters: species or system P. falciparum D10 trophozoite lysates; single well
# 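Note: 30 min substrate incubation versus DMSO and 10 µM JCP410 controls.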
# Sequence of DPAP1 (Q8IIJ9 whole entry, looked up): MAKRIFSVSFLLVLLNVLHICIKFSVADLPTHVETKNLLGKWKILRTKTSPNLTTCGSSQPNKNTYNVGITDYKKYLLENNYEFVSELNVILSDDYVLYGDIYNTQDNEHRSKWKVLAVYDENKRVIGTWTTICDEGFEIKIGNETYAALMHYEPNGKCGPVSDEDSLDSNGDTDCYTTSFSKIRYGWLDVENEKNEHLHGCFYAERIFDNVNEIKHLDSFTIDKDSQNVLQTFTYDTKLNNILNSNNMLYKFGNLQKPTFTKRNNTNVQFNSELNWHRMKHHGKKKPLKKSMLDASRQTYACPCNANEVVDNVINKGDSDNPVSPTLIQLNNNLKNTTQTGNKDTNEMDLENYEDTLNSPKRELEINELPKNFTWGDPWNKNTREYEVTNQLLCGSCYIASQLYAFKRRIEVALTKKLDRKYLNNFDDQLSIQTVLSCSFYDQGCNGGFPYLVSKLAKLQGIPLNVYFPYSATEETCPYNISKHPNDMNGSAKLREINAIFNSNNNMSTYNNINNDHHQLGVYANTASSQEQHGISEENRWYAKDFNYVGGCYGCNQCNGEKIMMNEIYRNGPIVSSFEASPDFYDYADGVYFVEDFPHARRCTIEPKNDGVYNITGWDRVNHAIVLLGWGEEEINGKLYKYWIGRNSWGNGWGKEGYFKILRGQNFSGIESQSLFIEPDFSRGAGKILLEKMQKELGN
row,Compound,% Inhibition @ 10 uM [%]
1,Cc1cccc(C)c1NC(=O)CN1C(=O)S/C(=C/c2cccs2)C1=O,-10.8
2,COc1ccc2nc3c(O)n(Cc4ccccc4Cl)cnc-3c2c1,-3.52
3,CCOc1cc2c(cc1/C=C1/NC(=O)N(CC(=O)Nc3ccccc3)C1=O)OCO2,7.34
4,CC(C)C[C@H](NC(=O)c1ccc(-c2cccc(C(C)C)c2)cc1)C(=O)NCC#N,-1.41
5,CCOC(=O)c1c(S(=O)(=O)NCCN2CCc3ccccc3C2)c(C)n(C)c1C,-1.37
6,C=Cc1ccc(Cn2c(C(=O)O)c(CNCc3ccc(OC(C)C)cc3)c3ccccc32)cc1,2.27
7,N#Cc1ccc(CSc2nnc(CN3CCOCC3)n2-c2ccccc2)cc1,2.72
8,O=[N+]([O-])c1ccc(CN2CCN(c3cccc(C(F)(F)F)c3)CC2)s1,-0.127
9,CCN(CCC(C)c1ccccc1)CCN(C)C (stereo not shown),-4.75
10,CC1(C)CC(=O)C2=C(C1)N(c1nc[nH]n1)C(N)=C(C#N)C2c1ccc(F)cc1 (stereo not shown),-4.6
11,Cc1ccc(NC(=O)c2c(Cl)c(C)nn2C)cc1C,-1.44
12,Cc1ncsc1CCSc1nc2ccccc2c(=O)n1C,-1.98
13,COc1ccc(OCC(O)CN2CCN(c3ccccc3F)CC2)cc1 (stereo not shown),3.43
14,O=C(NC1C2CC3CC1CC(O)(C3)C2)c1ccc(Cl)cc1 (stereo not shown),-4.75
15,O=C(NCCCc1ccccc1)C1CCC(CNS(=O)(=O)c2cccc3nsnc23)CC1 (stereo not shown),-2.25
16,COc1cccc(/C=C2\N=C(C3CCCCC3)OC2=O)c1OC,-0.597
17,CCCN1CCC(N(C)CCN(CC)CC)CC1,-1.56
18,Cn1c2ccccc2c2cnn(CC(=O)NCc3cccnc3)c(=O)c21,-3.67
19,Cc1cccc(OCc2nc(-c3cc(C)nc4ccccc34)no2)c1,1.32
20,CCOc1ccc(C(=O)Nc2cccc(C(=O)O)c2C)cc1Cl,-0.123
21,CCN1C2=C(C(=O)CCC2)C(c2cccc(OC)c2)C2=C1CCCC2=O,-1.6
22,Nc1nc2c3cc4c(nc3sc2c2ccccc12)CCC4,-0.171
23,C#CCOC(=O)CCCC(=O)Nc1cccc2ccccc12,-1.77
24,Cc1ccc(C)c(Cn2c(CN3CCN(C(=O)c4ccco4)CC3)nc3c2c(=O)n(C)c(=O)n3C)c1,4.51
25,O=C(CSc1nc[nH]n1)Nc1nnc(-c2ccccc2)s1,-3.41

row,Compound,% Inhibition @ 10 uM [%]
1,COc1ccc(-c2cc(O)c(C(=O)c3ccc(C)cc3)nn2)cc1,-0.403
2,CCOc1cc(C(Nc2cc(C)ccn2)c2ccc3cccnc3c2O)ccc1O (stereo not shown),-4.51
3,FC(F)(F)c1cccc(N2CCN(Cc3cccs3)CC2)c1,-2.08
4,Cc1cc(C2C(=O)c3ccccc3C2=O)nc2ccccc12,0.627
5,O=C(CCC1CCCC1)NC1CCC(NC(=O)CCC2CCCC2)CC1 (stereo not shown),2.22
6,COc1ccc2nc3sc(C(=O)NCCCN4CCCC4=O)cc3cc2c1,84.6
7,CCCC(NCC(C)C)C(=O)Nc1c(C)cc(C)cc1C (stereo not shown),-0.999
8,COc1ccc(C2(C)CC(=O)N(C)C2=O)cc1 (stereo not shown),4.08
9,CCOC(=O)C1=C(N)OC2=C(C(=O)CC(C)(C)C2)C1c1ccc(Cl)c(Cl)c1 (stereo not shown),13
10,COc1cc(CNCCSc2nnnn2C)cc(Br)c1OCc1ccccc1F,0.00706
11,COC(=O)CC[S+](O)CCC(=O)OC,-0.0372
12,O=C(O)c1cccnc1SCc1ccccc1,-0.519
13,O=C(NC1(C(F)(F)F)C(=O)Nc2c1c(=O)[nH]c(=O)n2-c1ccccc1)c1ccncc1 (stereo not shown),1.93
14,Cc1nc2cc(NC(=O)CNS(=O)(=O)c3ccc(C(C)(C)C)cc3)ccc2s1,-3.43
15,CC(C)(C)N1C(=O)N=C(c2ccccc2)c2ccccc2S1=O (stereo not shown),-3.45
16,O=C(CCc1nnc2ccc(N3CCCC3)nn12)N1CC=C(c2ccccc2)CC1,-0.544
17,CC(C)C1C(C#N)=C(N)Oc2[nH]nc(-c3ccc4ccccc4c3)c21 (stereo not shown),11.1
18,O=C(Cc1ccccc1)Nc1c(-c2ccc(F)cc2)nc2ccccn12,-2.83
19,Cc1ccsc1CCNC(=O)c1cc(-c2ccccc2)c(N2CCOCC2)s1,0.708
20,COC(=O)c1ccc(CSc2nc3cccnc3n2Cc2ccccc2)cc1,-3.34
21,NC(=O)COc1ccc(/C=C2/SC(=O)N(CC(=O)N3CCN(c4ccccc4)CC3)C2=O)cc1,0.161
22,Cc1ccc(Sc2ccc(/C=C3/C(=N)N4C(=NC3=O)SN=C4S(C)(=O)=O)o2)cc1,1.85
23,COc1ccc(C2=NOC(C(=O)N(C)Cc3ccccc3)C2)cc1 (stereo not shown),1.62
24,CCOC(=O)N1CCN(c2nc(-c3ccc(C)cc3)cc(C(F)F)n2)CC1,2.64
